Data taken from a protein production outcome set (Wang et al. 2014).

Experiment: label from the status in PepcDB records

| Sequence | protein production |
| --- | --- |
| AGGHKNLPAKGDLHIPVFENVNVRFSPDTYPDNYNEADGTGVYHLVNGRIILKKITLPEYKRNVSVSLKVTLASNGDRWDKSGSCFVLPKSSAINLLTIARDGMKFPSVDSLKLEKMVGIVPGKDYLPTVELMRFMTPFGIGHYSNNNDSLSSKRRPVYIPKWESNVTWQQDITDLYPLLEGEAYVGIYIDTWTSEGYLVNADIDVKESRLACDVLPKRHVEPLMNTVYYMGQSYPDIFARRDVSTDFTVPKGAKNIRLKYIVTGHGGHSGGDEFVQKRNIISVDGKEVLNFIPWRDDCASFRRFNPATGVWLIKRLASYIGEKGYTEKEVEEPLASSDLSRSNWCPGSDVVPEEAVIGTLAPGKHTFTVSIPEAQAVDGNKLNHWLVSAYLVWEE | not failed |
| MKVKVFRVHGYFEKNGRKFKFTKEYRGIKEEDVKELVYSDIGSKHKVKRNKIFIKEIKEIRPEEAEDIVVRRLSLELLEHHHHHH | failed |
| MGLRNLLDKVEHHFEKGGRYEKWYPLYEAVDTFLYRPGSVTRTTAHVRDGIDLKRMMIIVWLCTFPAMFFGMYNVGHQANLIFAQSPDLLSAQDGWRFALIGALAGFDPNSLWDCLVQGAAYFLPVYLTTFIVGGFWEVLFASIRRHEVNEGFFVTSVLFALTLPPSVPLWQVALGISFGVVLGKEVFGGTGKNFLNPALVGRAFLFFAYPAQMSGDAVWTSVDGFAGATSLSLAAAGGVDNILGHGLTWMDAFLGHMQGSMGETSTLAIFIGGAVLLLTRIASWRIVAGVMLGMVAMSYLFNAIGSASNPMFAMPWYWHLVTGGFAFGMIFMATDPVSASMTDTGKWLFGALIGVMVMLIRVVNPAFPEGMMLAILFANLFAPLIDHFVVQANIKRRLARNG | failed |
| MPQNDYIELHRKRYGYRFDHFEKERKKEARKVHKDSLKAKKLRGIKAKIYNKKKYTEKVNLKKTLKSHELKDIKSTETLKDDNGLPSYLLDRQQTKHTQILTNLIKQKRKSKCGKWQLPIPKIQALNEAEMLRVVKSGKRRRKTWKRLIDKISFVGNDFTRKNPKFERYIRPSSLRFKKANVYHSELKSTFSLDIISVKVNPQSNLYTNLGIITKGTIIEVNVSELGLVTQSGKVIWAKFAQVTNNPELDGCINATLLV | failed |
| MLALEAAQLDGPHFSCLYPDGVFYDLDSCKHSSYPDSEGAPDSLWDWTVAPPVPATPYEAFDPAAAAFSHPQAAQLCYEPPTYSPAGNLELAPSLEAPGPGLPAYPTENFASQTLVPPAYAPYPSPVLSEEEDLPLDSPALEVSDSESDEALVAGPEGKGSEAGTRKKLRLYQFLLGLLTRGDMRECVWWVEPGAGVFQFSSKHKELLARRWGQQKGNRKRMTYQKLARALRNYAKTGEIRKVKRKLTYQFDSALLPAVRRA | not failed |
